Variants at the floor of the assay are shown more often than the library holds them.
B1: glmS ribozyme (parent)
chain: AUAAAAGCGCCAGAACUACAGAAAUGUAGUUGACGAGGAGGAGGUUUAUCGAAUUUUCGGCGGAUGCCUCCAAA

Key:
Settings in all cases: with glucosamine-6-phosphate
[1] = variants of: B1; experiment: self-cleavage kobs at 40 uM GlcN6P; higher = faster cleavage; RNA array
Outline: (§1)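 Glucosamine-6-phosphate in HEPES/KCl/Mg(OAc)2 buffer, at 40 μM to 10 mM, was flowed over barcoded ribozyme variants transcribed in situ by E. coli RNA polymerase on sequenced MiSeq chips. Tracking was through a hybridised Cy3 probe at 37 °C. kobs, kcat and KM came from exponential decay fits and weighted Michaelis–Menten fits of normalised per-tile medians.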

[2] = variants of: B1; experiment: self-cleavage kobs at 10000 uM GlcN6P; higher = faster cleavage; RNA array
Outline: as §1

[3] = variants of: B1; experiment: self-cleavage kobs at 2500 uM GlcN6P; higher = faster cleavage; RNA array
Outline: as §1

[4] = variants of: B1; experiment: self-cleavage kobs at 640 uM GlcN6P; higher = faster cleavage; RNA array
Outline: as §1

[5] = variants of: B1; experiment: self-cleavage kobs at 160 uM GlcN6P; higher = faster cleavage; RNA array
Outline: as §1

Variant | self-cleavage kobs at 40 uM GlcN6P [1] | self-cleavage kobs at 10000 uM GlcN6P [2] | self-cleavage kobs at 2500 uM GlcN6P [3] | self-cleavage kobs at 640 uM GlcN6P [4] | self-cleavage kobs at 160 uM GlcN6P [5]
G9C A36U G41U | < 1e-05 s⁻¹ | < 1e-05 s⁻¹ | – | – | –
C10A A12G G63U | < 1e-05 s⁻¹ | – | – | – | –
G9U C34G | < 1e-05 s⁻¹ | < 1e-05 s⁻¹ | < 1e-05 s⁻¹ | – | –
G9U A12U C71U | < 1e-05 s⁻¹ | – | < 1e-05 s⁻¹ | < 1e-05 s⁻¹ | < 1e-05 s⁻¹
C10A A14C G44U | < 1e-05 s⁻¹ | – | – | – | –
G9C A53C | < 1e-05 s⁻¹ | < 1e-05 s⁻¹ | – | < 1e-05 s⁻¹ | < 1e-05 s⁻¹
G9C C34A A42U G43A | < 1e-05 s⁻¹ | – | – | – | –
G9C G60U | < 1e-05 s⁻¹ | < 1e-05 s⁻¹ | < 1e-05 s⁻¹ | – | < 1e-05 s⁻¹
G9C U47G | < 1e-05 s⁻¹ | < 1e-05 s⁻¹ | – | – | –
G9C U47A | < 1e-05 s⁻¹ | – | < 1e-05 s⁻¹ | – | –
C10A G41A | < 1e-05 s⁻¹ | < 1e-05 s⁻¹ | < 1e-05 s⁻¹ | < 1e-05 s⁻¹ | < 1e-05 s⁻¹
G9C U49G | < 1e-05 s⁻¹ | < 1e-05 s⁻¹ | – | – | –
G9C A33U G44U | < 1e-05 s⁻¹ | < 1e-05 s⁻¹ | < 1e-05 s⁻¹ | < 1e-05 s⁻¹ | < 1e-05 s⁻¹
G9C G66A C70A | < 1e-05 s⁻¹ | – | < 1e-05 s⁻¹ | – | < 1e-05 s⁻¹
G9C C68G | < 1e-05 s⁻¹ | < 1e-05 s⁻¹ | < 1e-05 s⁻¹ | < 1e-05 s⁻¹ | < 1e-05 s⁻¹
G9U A42C U56C C71U | < 1e-05 s⁻¹ | – | – | – | –
C10G A14G | < 1e-05 s⁻¹ | – | – | – | < 1e-05 s⁻¹
G9U G29A G41A U47G U56G C68G | < 1e-05 s⁻¹ | < 1e-05 s⁻¹ | – | – | –
C10G G43U | < 1e-05 s⁻¹ | – | < 1e-05 s⁻¹ | < 1e-05 s⁻¹ | < 1e-05 s⁻¹
C10A C11G A33C | < 1e-05 s⁻¹ | < 1e-05 s⁻¹ | – | – | –
G9U G41A U45G C71U | < 1e-05 s⁻¹ | < 1e-05 s⁻¹ | – | – | –
C10G A33G G43C | < 1e-05 s⁻¹ | < 1e-05 s⁻¹ | – | – | –
C10U A12G A33U G37U | < 1e-05 s⁻¹ | – | < 1e-05 s⁻¹ | – | < 1e-05 s⁻¹

Source: the supplement of paper PMC7125110
